# Laboratory results reported in PubChem BioAssay AID588855 (National Center for Advancing Translational Sciences (NCATS), 2011).
# The whole screen tested about 410,000 compounds, of which about 5,000 (1.2%) were called active. Inconclusive means that the source gave no clear call. Such entries were picked first, then a sample of the others. Calls follow the shape of the dose curve; as a rule, active = well fitted inhibition curve with a large enough effect; inconclusive = small, poorly fitted or top-dose-only effect; inactive = no such curve, though single readings can be large or run the other way. Where the call is inconclusive, the potency comes from a doubtful curve fit.
# Assay: qHTS for Inhibitors of TGF-b; also: nearly all actives have a fitted effect of over 65% in size
# Conditions: HepG2 CAGA-GFP TGF-b/SMAD3 reporter, GFP fluorescence, 18 h, TGF-beta stimulated, 500 pg/mL final; series mostly up to 46.1 µM
# Procedure, shortened: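 First, reporter cells (HEPG2 CAGA-GFP) rested 2 h at 37 degrees C. Next, compounds were pinned in and TGF-beta added to 500 pg/mL final. After 18 h, GFP was imaged per cell and summed per well.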
# Potency is read from the fitted curve at half-maximal effect; tags tell the direction and shape of the fitted curve.
row,SMILES,Potency
1,Cc1nn(C(C)(C)C)c(OC(=O)c2ccc3c(c2)OCO3)c1S(=O)(=O)c1ccccc1,"inconclusive: 35.5 µM [inhibitor, single point]"
2,COc1ccc(N2CCN(S(=O)(=O)c3ccc(CC(C)C)cc3)CC2)cc1,"inconclusive: 6.31 µM [inhibitor, single point]"
3,CCOCCc1nnc(NC(=O)CS(=O)(=O)c2ccc(C)cc2)s1,inactive
4,Cc1cccc(CS(=O)(=O)c2nnc([C@H](Cc3ccccc3)NC(=O)OC(C)(C)C)o2)c1,"inconclusive: 2.24 µM [inhibitor, full curve]"
5,CC1CCN(C(=O)CSc2nnc(-c3cc4ccccc4cc3O)n2Cc2ccco2)CC1,"inconclusive: 11.2 µM [inhibitor, single point]"
6,C/C(=N\NC(=O)CCCNc1ccccc1)c1ccncc1,inactive
7,CCNc1ccc(Br)cc(C(=O)/C=C/c2ccc(Cl)cc2)c1=O,inactive
8,Cc1cc(C)cc(NC(=O)CCc2c(C)nc3nc(CNC(=O)c4cccc(F)c4)nn3c2C)c1,"inconclusive: 11.2 µM [inhibitor, single point]"
9,Cc1ccc(S(=O)(=O)CC2CSc3nc4ccccc4n32)cc1 (stereo not drawn),inactive
10,Cc1ccc(-n2c(=O)c3c(c4cc(C)ccc4n3C)n(CC(=O)Nc3ccc(F)cc3)c2=O)cc1,"inconclusive: 6.31 µM [inhibitor, full curve, poor fit]"
11,CCn1c(SCC(=O)N/N=C/c2ccc(C)s2)nc2ccccc21,"inconclusive: 15.8 µM [inhibitor, single point]"
12,COc1ccc(CNC(=O)COCc2cc(-c3ccc4c(c3)OCO4)on2)cc1,"inconclusive: 6.31 µM [inhibitor, single point]"
13,CCc1cccc(C)c1NC(=O)c1ccc2c(c1)CCN2S(=O)(=O)c1ccc(Cl)cc1,inactive
14,CN1/C(=C\C(=O)Nc2cccc(Cl)c2)C(C)(C)c2ccccc21,"inconclusive: 35.5 µM [inhibitor, single point]"
15,Cc1cc(C)c(OCCCCN2CCNCC2)c(C)c1,"inconclusive: 0.631 µM [inhibitor, full curve]"
16,CC1CCCCN1Cc1c(O)ccc2c(=O)c(-c3nc4ccccc4s3)c(N)oc12 (stereo not drawn),"inconclusive: 8.91 µM [inhibitor, partial curve, poor fit]"
17,Cc1ccc(C(=O)N/C(=C/c2ccc(-c3cc(C(F)(F)F)ccc3Cl)o2)C(=O)NCc2cccnc2)cc1,active: 12.6 µM
18,O=C(OC(C(=O)NC1CCCC1)c1cccnc1)C1=Cc2ccccc2OC1 (stereo not drawn),"inconclusive: 22.4 µM [inhibitor, partial curve, poor fit]"
